In all, about 33,000 sequences were measured (“E-score (-0.5 to 0.5)”: median about -0.017, highest 2% from about 0.3 on). The list shows a part of the results.
Target: T1, Sut1 (UniProt P53032)
T1 sequence: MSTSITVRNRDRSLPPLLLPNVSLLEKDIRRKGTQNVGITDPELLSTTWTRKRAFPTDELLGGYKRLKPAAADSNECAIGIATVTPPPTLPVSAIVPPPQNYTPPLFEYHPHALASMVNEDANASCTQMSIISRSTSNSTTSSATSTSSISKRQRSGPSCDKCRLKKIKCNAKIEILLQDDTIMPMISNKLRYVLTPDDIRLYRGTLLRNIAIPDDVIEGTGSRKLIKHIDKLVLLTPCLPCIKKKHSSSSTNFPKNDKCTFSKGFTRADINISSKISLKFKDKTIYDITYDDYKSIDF
Test: PBM E-score (8-mer binding enrichment) (E-score (-0.5 to 0.5)); higher = stronger / more preferred TF binding; most listed sequences are background and not binding sites
Conditions: protein concentration: 200 nM; construct: GST-full length
Procedure, shortened: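 Yeast transcription factors, full-length or as DNA-binding domains, were expressed with a GST tag using PURExpress in vitro transcription/translation. At about 100-200 nM they were applied to universal all-10-mer Agilent arrays, double-stranded by primer extension on fresh or once-stripped slides. Fluorescent anti-GST detected bound protein, and masliner normalised the scans. E-scores for ungapped eight-base words, pooled with reverse complements, came from the Universal PBM Analysis Suite.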

Sequence	PBM E-score
AGATCAGG	-0.123
CTTGACCC	-0.0446
AGCGTCAC	-0.241
CTTCATGC	-0.0609
GAGTCGAA	0.0563
ATGATTCC	0.215
TATGCACA	-0.0194
CGCATATA	-0.0843
CCCCCCTA	-0.298
GGCGCGTA	-0.216
GATATTCC	0.0731
TCCTAGGA	-0.283
ACTTTACC	0.0831
TGGGATAA	0.0418
ATCGGTCC	-0.134
CCTGATAG	-0.289
GTCTCGGA	0.316
AGGCTTGC	-0.253
AGAGCTCG	-0.0935
AGTCAAAA	0.0904
CTTCAGGA	-0.00396
ACACTTCA	0.0715

Sequence	PBM E-score
CCAGCATA	-0.0643
CTGGAAAA	0.0635
ACTGCAGA	0.0406
GGGTCCAC	-0.241
AACTCGGC	0.0606
CTAGTTAA	0.189
CTGCGGAC	0.165
ACCACAGC	-0.247
TGGAGCCA	-0.242
CAGGGGTC	-0.241
CCTCGTCG	-0.028
AGATAGGC	-0.0586
TACTAAGA	0.175
CGAGTCCG	0.426
AAGACTGG	0.0867
CGACAGAG	-0.267
AGAAGGTC	0.111
GGAGCAGA	-0.101
AGAAGTAT	0.16
CGCGTAGA	-0.107
ACCGAAGG	0.0104
GCCGAGGA	0.1

Sequence	PBM E-score
GAGGTGGA	-0.151
AGCACGGG	-0.0762
CAATAGAG	-0.123
ACGTGCCG	-0.176
CATACCTA	0.044
TCGTGACA	-0.128
CCCCCGGG	-0.174
CAAGTCGG	0.0146
ACTTTCGG	0.111
AACGATTC	0.135
CTACACAG	-0.108
GTAGGCAC	-0.102
ACCAATGC	-0.0193
CCGGAAAA	0.37
AGAATTGG	0.13
CGATATAA	0.233
CCATCCGG	0.0104
ACCCTTCG	-0.105
ACTTCAAA	0.0887
CAAAGTAA	0.124
AATTTGGA	-0.0756
ACAGATTG	-0.0506

Sequence	PBM E-score
GATAAAGA	0.114
AATTGTTG	0.0325
CACTCATA	0.16
CGATGCCA	-0.206
AAGGGCTC	-0.246
ACGCGCAA	0.0687
CAAACCGC	-0.0415
GCAGTCAC	-0.219
ACCACCTG	-0.0527
GTGACTCA	-0.253
ACACGACG	0.00477
ATTTGTCA	0.14
ATGTAAGA	0.221
ATGCACAT	0.0983
ACTTCCAA	-0.0599
ACCAGGGA	-0.251
CCGGGGAG	-0.0154
ACTAGAAT	0.167
AACTATGT	0.0733
AATCAAGT	0.212
ATAATGTC	0.128
AGTACAGG	-0.0282

Sequence	PBM E-score
GCGAAAGC	-0.0992
AAAGAAGG	0.0158
AGCATTTG	-0.112
CGGCTGGC	-0.0651
CCGTAACA	0.0386
ACTTCCCA	0.0315
CCTGTAAG	-0.0842
GCATCAAC	-0.112
AAAATTTA	0.233
CGAAAAAG	0.123
ACGCCCGA	-0.115
ACCGGCGG	-0.0437
CCTTTAAG	-0.00623
TATTGAGA	0.176
GTAAGTCA	0.0901
ACTGGCGG	0.0197
ACAGAGAA	-0.0551
CGGCCGAC	0.0666
CTAGGTGC	-0.148
GTGGAAGA	0.025
CGACCGGA	0.191
CCAGTAAA	0.0224
